This note sets out measurements from paper PMC5700166.

The list shows a part of the results, in another mix than the full data. The list includes weakly bound sequences.

This assay deals with T1, GST-Aq-NF-kB (UniProt A9Y5G7).
T1 sequence: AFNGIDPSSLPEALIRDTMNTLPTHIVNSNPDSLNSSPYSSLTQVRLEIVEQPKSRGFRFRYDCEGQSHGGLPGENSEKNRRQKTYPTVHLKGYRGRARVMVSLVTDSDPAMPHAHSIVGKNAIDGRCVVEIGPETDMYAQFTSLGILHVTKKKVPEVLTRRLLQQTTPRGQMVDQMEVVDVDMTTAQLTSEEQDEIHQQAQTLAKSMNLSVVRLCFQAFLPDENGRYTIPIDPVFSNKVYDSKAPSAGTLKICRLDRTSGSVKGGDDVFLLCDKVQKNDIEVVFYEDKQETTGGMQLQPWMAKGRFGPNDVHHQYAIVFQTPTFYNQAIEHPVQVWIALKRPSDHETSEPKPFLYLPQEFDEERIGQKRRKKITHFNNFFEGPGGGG
In words: protein-binding microarray (PBM). Particulars: PBM: ~300 nM protein, 6 mM HEPES pH 7.8, 80 mM KCl, 0.5 mM EDTA, 0.5 mM EGTA, 6% glycerol, 35 ng/ul poly-dIdC, 1% milk, 1 h, room temperature; Ap Aiptasia and Nv Nematostella (sea anemones) / Co Capsaspora / Aq Amphimedon (sponge) / Dm Drosophila / Hu human; RHD is the Rel homology domain; high values mean tight binding; most listed sequences are background and not binding sites; double strand, one strand shown.
For “CCGATTAACATCAGATCCCCCCCTGATGTTAATCGGGTCTTGATTCGCTTGACGCTGCTG”, the binding signal amounted to 5.39 z-score.
“CCGATTAACATCACATGGGAATCTGATGTTAATCGGGTCTTGATTCGCTTGACGCTGCTG” showed a binding signal of 1.14 z-score.
The sequence “CCGATTAACATCAGGGATTTTCATGATGTTAATCGGGTCTTGATTCGCTTGACGCTGCTG” registered a binding signal of 5.16 z-score.
Regarding “CCGATTAACATCAGGGGAATTTATGATGTTAATCGGGTCTTGATTCGCTTGACGCTGCTG”, the binding signal was found to be 8.72 z-score.
“CCGATTAACATCAGGGGGTAGGATGATGTTAATCGGGTCTTGATTCGCTTGACGCTGCTG” returned a binding signal of 2.89 z-score.
The sequence “CCGATTAACATCAAATTCCCCCTTGATGTTAATCGGGTCTTGATTCGCTTGACGCTGCTG” came in with a binding signal of 8.5 z-score.
In the case of “CCGATTAACATCAGGAGTTCCCCTGATGTTAATCGGGTCTTGATTCGCTTGACGCTGCTG”, the binding signal came to 9.11 z-score.
The figure for “CCGATTAACATCAGGATTTTCCCTGATGTTAATCGGGTCTTGATTCGCTTGACGCTGCTG” is 8.92 z-score; for “CCGATTAACATCAATCCACCCCCTGATGTTAATCGGGTCTTGATTCGCTTGACGCTGCTG” it is 3.63 z-score; for “CCGATTAACATCAGGGGGACAACTGATGTTAATCGGGTCTTGATTCGCTTGACGCTGCTG” it is 4.24 z-score.
As for “CCGATTAACATCACAAGTTCCCCTGATGTTAATCGGGTCTTGATTCGCTTGACGCTGCTG”, the figure is 6.21 z-score.
As for “CCGATTAACATCAAGAAATTCCCTGATGTTAATCGGGTCTTGATTCGCTTGACGCTGCTG”, the figure is 6.81 z-score; as for “CCGATTAACATCAGGGCGTCCCCTGATGTTAATCGGGTCTTGATTCGCTTGACGCTGCTG”, 7.89 z-score; as for “CCGATTAACATCACAGATTCCCCTGATGTTAATCGGGTCTTGATTCGCTTGACGCTGCTG”, 5.96 z-score.
As for “CCGATTAACATCAGGGGGGTTTATGATGTTAATCGGGTCTTGATTCGCTTGACGCTGCTG”, the binding signal was determined as 6.15 z-score.
Sequence “CCGATTAACATCAAAACTTTCCCTGATGTTAATCGGGTCTTGATTCGCTTGACGCTGCTG” showed a binding signal of 7.54 z-score.
The figure for “CCGATTAACATCAAGGGGGGAAATGATGTTAATCGGGTCTTGATTCGCTTGACGCTGCTG” is 5.8 z-score; for “CCGATTAACATCAGGGAAAACCCTGATGTTAATCGGGTCTTGATTCGCTTGACGCTGCTG” it is 10.2 z-score.
The figure for “CCGATTAACATCAGGGGACTATATGATGTTAATCGGGTCTTGATTCGCTTGACGCTGCTG” is 4.61 z-score; for “CCGATTAACATCAGGGGGAAGACTGATGTTAATCGGGTCTTGATTCGCTTGACGCTGCTG” it is 5.25 z-score.
As for “CCGATTAACATCAGGAGCCCCCCTGATGTTAATCGGGTCTTGATTCGCTTGACGCTGCTG”, the figure is 5.04 z-score; as for “CCGATTAACATCACCCACGAGGGTGATGTTAATCGGGTCTTGATTCGCTTGACGCTGCTG”, 0.747 z-score; as for “CCGATTAACATCAGGGGACATTATGATGTTAATCGGGTCTTGATTCGCTTGACGCTGCTG”, 4.62 z-score.
Sequence “CCGATTAACATCAGAAGTTCCCCTGATGTTAATCGGGTCTTGATTCGCTTGACGCTGCTG” came in with a binding signal of 7.04 z-score.
As to “CCGATTAACATCACCCACCCCCCTGATGTTAATCGGGTCTTGATTCGCTTGACGCTGCTG”, the binding signal is 3.84 z-score.
In the case of “CCGATTAACATCAGACTTTCCCATGATGTTAATCGGGTCTTGATTCGCTTGACGCTGCTG”, the binding signal came out at 4.28 z-score.
The figure for “CCGATTAACATCAGGAAACTCCCTGATGTTAATCGGGTCTTGATTCGCTTGACGCTGCTG” is 9.07 z-score; for “CCGATTAACATCAAATACCCCCCTGATGTTAATCGGGTCTTGATTCGCTTGACGCTGCTG” it is 6.24 z-score.
The figure for “CCGATTAACATCAGGACTCCCCCTGATGTTAATCGGGTCTTGATTCGCTTGACGCTGCTG” is 9.21 z-score; for “CCGATTAACATCAAGTACCCCCCTGATGTTAATCGGGTCTTGATTCGCTTGACGCTGCTG” it is 3.99 z-score.
On to “CCGATTAACATCAATTATTCCCCTGATGTTAATCGGGTCTTGATTCGCTTGACGCTGCTG”, for which the binding signal was found to be 5.63 z-score.
The figure for “CCGATTAACATCAGGGGATGTGCTGATGTTAATCGGGTCTTGATTCGCTTGACGCTGCTG” is 2.79 z-score; for “CCGATTAACATCAGCGAATTCCCTGATGTTAATCGGGTCTTGATTCGCTTGACGCTGCTG” it is 3.61 z-score.
“CCGATTAACATCAAATGTCCCCCTGATGTTAATCGGGTCTTGATTCGCTTGACGCTGCTG” showed a binding signal of 5.64 z-score.
The figure for “CCGATTAACATCAAAACTCCCCCTGATGTTAATCGGGTCTTGATTCGCTTGACGCTGCTG” is 7.6 z-score; for “CCGATTAACATCAGGGAACAACCTGATGTTAATCGGGTCTTGATTCGCTTGACGCTGCTG” it is 4.61 z-score.
As for “CCGATTAACATCAGGGAATTACCTGATGTTAATCGGGTCTTGATTCGCTTGACGCTGCTG”, the figure is 9.49 z-score.
